# Reference: PubChem BioAssay AID686978 (National Center for Advancing Translational Sciences (NCATS), 2013)
# Among all 420,000 compounds or so, about 64,000 (15%) were called active. The inconclusive results got no clear call from the source; some entries with a clear call stand among them for comparison. Calls follow the shape of the dose curve; as a rule, active = well fitted inhibition curve with a large enough effect; inconclusive = small, poorly fitted or top-dose-only effect; inactive = flat fitted curve, though single readings scatter. No potency is given beside an inconclusive call; the fits are too rough. Peptide text beside a SMILES is read from it.
# Test: qHTS for Inhibitors of human tyrosyl-DNA phosphodiesterase 1 (TDP1): qHTS in cells in absence of CPT; also: nearly all actives have a fitted effect of over 55% in size
# Details: DT40 Tdp1-/- hTDP1 cells, no CPT, ATP luminescence, 48 h; activity change, negative = growth inhibition: at 46.2 µM (top of the series) unless noted
# Method in brief: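 A cellular qHTS used chicken DT40 cells lacking endogenous Tdp1 but carrying stably transfected human TDP1. Compounds were applied without camptothecin, and cell growth kinetics were judged by ATP-dependent luminescence after ≥48 hr.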
# % is scaled to controls: 0 for no effect and ±100 for the full control effect; potency is read from the fitted curve at half-maximal effect; tags tell the direction and shape of the fitted curve.
SMILES,Potency,"activity change, negative = growth inhibition"
CCOc1ccccc1NC(=O)CSc1nc(=O)[nH]c2c1CCCC2,"inconclusive [inhibitor, single point]",
Cc1ccc(/C=C2/CCc3c([nH]c4ccccc34)C2=O)cc1,"inconclusive [inhibitor, single point]",
COc1ccc(CCCNC(=O)C2CCC(=O)N(CC3CCCCC3)C2)cc1 (configuration not stated),active: 18.4 µM,
O=C(NNC(=O)C12CC3CC(CC(Br)(C3)C1)C2)c1ccccc1F,,inactive: 6.12%
CCCCCCCNC(=O)C1(CC2CC(c3ccc(Cl)cc3)=NO2)CCN(C(=O)C2CCCC2)CC1 (configuration not stated),"inconclusive [inhibitor, single point]",
Cc1ccc(C)c(N2CCN(C(=O)CCc3nc(-c4ccccc4F)no3)CC2)c1,"inconclusive [inhibitor, single point]",
O=C(CC1S/C(=N/N=C/C=C/c2ccccc2)NC1=O)Nc1ccc(Cl)c(Cl)c1 (configuration not stated),"inconclusive [inhibitor, single point]",
CC(C)(C)c1ccc(C(=O)NCCc2csc3nc(-c4ccccc4F)nn23)cc1,"inconclusive [inhibitor, single point]",
Cc1ccc(S(=O)(=O)NCC2CCC(C(=O)N3CCN(C)CC3)CC2)cc1 (configuration not stated),"inconclusive [inhibitor, single point]",
COc1ccc(C2CC(=O)NC(NC(=O)c3ccc(Br)cc3)=N2)c(OC)c1OC (configuration not stated),,inactive: -9.45%
Cc1cccc(-n2nnnc2SCC(=O)c2cc(C)n(CC3CCCO3)c2C)c1 (configuration not stated),"inconclusive [inhibitor, partial curve]",
CCOC(=O)N/N=C1\CCS(=O)(=O)c2ccc(Cl)cc21,"inconclusive [inhibitor, single point]",
COc1ccccc1CNC(=O)CN1C(=O)COc2ccc(S(=O)(=O)Nc3ccccc3)cc21,"inconclusive [inhibitor, partial curve]",
O=C(Nc1nc(-c2ccccc2)cs1)C1COc2ccccc2O1 (configuration not stated),"inconclusive [inhibitor, single point]",
COc1ccc(-c2cc(C(=O)Nc3c(C)nn(Cc4ccc(Cl)cc4)c3C)no2)cc1,"inconclusive [inhibitor, partial curve]",
COc1ccc(OC)c(NC(=O)Cn2cnc3ccc(S(=O)(=O)N4CCC(C)CC4)cc3c2=O)c1,"inconclusive [inhibitor, partial curve]",
CCOC(=O)c1ccc(-n2c(C)nc3c(cnn3-c3ccccc3Cl)c2=O)cc1,,inactive: -24%
CCCCNc1c(-c2cccc(-c3ccc(OC)cc3)c2)nc2cc(C)ccn12,active: 18.4 µM,
COC(=O)[C@H](Cc1c[nH]c2ccccc12)NC(=O)Nc1ccccc1OC,,inactive: -7.45%
O=c1nc(C(F)(F)F)nc2ccccn12,,inactive: -20%
Cc1ccccc1NC(=O)c1nc(S(C)(=O)=O)ncc1Cl,active: 2.31 µM,
COc1ccccc1OCCn1nc2ccccc2c1OC,"inconclusive [inhibitor, single point]",
CCN(CC)C(=O)CSc1nc2c(sc(=S)n2-c2ccccc2OC)c(=O)n1-c1ccccc1,"inconclusive [inhibitor, single point]",

SMILES,Potency,"activity change, negative = growth inhibition"
Oc1ccccc1C=NNc1nc2ccccc2s1,active: 0.0517 µM,
Cc1ccc(NC(=O)CCCNC(=O)c2ccc(Cl)cc2)nc1,,inactive: -1.03%
O=C(c1ccccc1)c1ccc(OCC(O)CNCc2ccc(Cl)cc2)cc1 (configuration not stated),"inconclusive [inhibitor, partial curve]",
NC(=S)N/N=C/c1ccc(-c2cccc([N+](=O)[O-])c2)o1,active: 3.66 µM,
COc1cc(/C=C/c2nc(C#N)c(N3CCCCCC3)o2)cc(OC)c1OC,active: 16.4 µM,
CCCNCC(O)Cn1c2ccccc2n2c(=O)cc(C)c(C#N)c12 (configuration not stated),"inconclusive [inhibitor, single point]",
COc1ccc(CN2CC(C(=O)NCCN3CCN(c4ccccc4F)CC3)CC2=O)cc1 (configuration not stated),"inconclusive [inhibitor, single point]",
COC(=O)Cc1ccc(NC(=S)N2CCN(c3ccc(OC)cc3)CC2)cc1,"inconclusive [inhibitor, single point]",
Fc1ccc(NC(=S)Nc2ccc(Br)cc2)cc1,active: 9.2 µM,
Cc1ccnc2ccccc12,,inactive: -2.33%
"CC(C)C[C@@H]1NC(=O)[C@H](CCCN)NC(=O)[C@H](C(C)C)NC(=O)[C@@H]2CCCN2C(=O)[C@@H](Cc2ccccc2)NC(=O)[C@H](CC(C)C)NC(=O)[C@H](CCCN)NC(=O)[C@H](C(C)C)NC(=O)[C@@H]2CCCN2C(=O)[C@@H](Cc2ccccc2)NC1=O (HELM PEPTIDE1{V.[Orn].L.[dF].P.V.[Orn].L.[dF].P}$PEPTIDE1,PEPTIDE1,1:R1-10:R2$$$V2.0)",active: 0.146 µM,
C[C@H](NC(=O)c1nc[nH]c1C(=O)N[C@H](C)c1ccccc1)C(=O)OCc1ccccc1,,inactive: -17.3%
COc1ccc(Cl)cc1NS(=O)(=O)c1ccc2[nH]c3c(c2c1)CCCC3,"inconclusive [inhibitor, single point]",
COC(=O)c1cc(NC(=O)Nc2ccccc2)ccc1Cl,"inconclusive [inhibitor, single point]",
Cc1ccc(S(=O)(=O)NCCC(=O)Nc2ccncc2)cc1C,"inconclusive [inhibitor, partial curve]",
CCN(CC)S(=O)(=O)c1ccc2oc(C(=O)NCc3ccc(C)cc3)c(C)c2c1,"inconclusive [inhibitor, single point]",
Cc1cccc(C)c1NC(=O)Cn1c(=O)n(Cc2ccccc2)c(=O)c2c(C)c(C(=O)N(C)C)sc21,"inconclusive [inhibitor, single point]",
CN(Cc1ccccc1NS(=O)(=O)c1ccc2ccccc2c1)C1CCCCC1,active: 20.6 µM,
Cc1nn(-c2ccccc2)c(C)c1C(=O)OCC(=O)c1c(N)n(CC(C)C)c(=O)n(C)c1=O,active: 18.4 µM,
CC(=O)N(Cc1cccnc1)c1nc2c(F)cc(F)cc2s1,"inconclusive [inhibitor, single point]",
C/C(=N\Nc1nc2ccccc2c(=O)n1O)c1ccco1,"inconclusive [inhibitor, single point]",
CCn1cnc2sc(C(=O)N(Cc3ccc(N(C)C)cc3)Cc3ccco3)c(C)c2c1=O,"inconclusive [inhibitor, single point]",
Cc1c(C(=O)N2CCN(CC(=O)Nc3ccccc3Cl)CC2)oc2ccc(Br)cc12,,inactive: -7.17%

SMILES,Potency,"activity change, negative = growth inhibition"
Cc1ccc(Cl)cc1-n1c(=O)cc(N2CCN(c3ccc(F)cc3)CC2)[nH]c1=O,"inconclusive [inhibitor, single point]",
COC/C=C/C1=CC2=CC(=O)C(C)(OC(=O)c3cnc4ccccc4n3)C(=O)C2=CN1c1ccccc1 (configuration not stated),active: 16.4 µM,
Nc1ccc(-n2cnc3cc([N+](=O)[O-])ccc32)cc1,"inconclusive [inhibitor, single point]",
COc1ccc(N(C(=O)CCl)C(C)(C(=O)Nc2c(C)cccc2C)c2ccccn2)cc1 (configuration not stated),,inactive: -3.53%
COc1ccc(S(=O)(=O)NC(CC(=O)NCc2ccc3c(c2)OCO3)c2ccco2)cc1 (configuration not stated),,inconclusive: -33.4% [inhibitor]
CCOC(=O)CNC(=O)CSc1nnc(NC(=O)c2ccc(C)cc2)s1,,inactive: -3.99%
CC1(C)N=c2ccc([N+](=O)[O-])c(N)c2=[N+]1[O-],active: 20.6 µM,
COc1ccc(N(CC(=O)N2CCc3ccccc32)S(=O)(=O)c2c(C)noc2C)cc1,"inconclusive [inhibitor, partial curve]",
COc1ccc(-c2noc(Cc3ccc(Cl)cc3)n2)cc1OC,"inconclusive [inhibitor, partial curve, poor fit]",
Cc1cc(Br)ccc1NC(=O)C1CCN(C(=O)c2ccco2)CC1,"inconclusive [inhibitor, partial curve]",
Cc1cc(CN(C)Cc2cn(C)nc2-c2ccc(Oc3ccccc3)cc2)on1,active: 16.4 µM,
COc1ccc(CC(=O)Oc2ccc(F)c(F)c2)cc1S(=O)(=O)N1CCOCC1,,inactive: 1.68%
Cc1ccc(CN(C(=O)c2csnn2)C(C(=O)NC2CCCC2)c2ccco2)cc1 (configuration not stated),"inconclusive [inhibitor, partial curve, poor fit]",
Fc1ccccc1-c1ccc(/C=N/Nc2nc3ccccc3[nH]2)o1,"inconclusive [inhibitor, single point]",
CCN1CCN(C(=O)CN2C(=O)COc3ccc(S(=O)(=O)N4CCOCC4)cc32)CC1,,inactive: 35.2%
COc1ccc(Cn2c(=O)[nH]c3cc(C(=O)NCCCN4CCCCC4)ccc3c2=O)cc1,"inconclusive [inhibitor, full curve, poor fit]",
COc1ccc(-c2cn3cc(Br)cnc3n2)cc1,"inconclusive [inhibitor, partial curve, poor fit]",
O=C(Nc1ccccc1N1CCN(c2ccc(F)cc2)CC1)c1ccccc1,active: 18.4 µM,
Cc1ccc(C)n1-c1ccc(-c2ccn[nH]2)cc1,"inconclusive [inhibitor, single point]",
CC(=O)Nc1ccc(C2=NNC(=Nc3cccc(S(=O)(=O)N(C)C)c3)SC2)cc1,active: 5.8 µM,
Cc1nc(SC2CC(=O)N(c3ccccc3)C2=O)n[nH]1 (configuration not stated),active: 5.17 µM,
